Results are given in words; binding and its absence hold for the method and conditions named. For part of these data: In cells and extracts the contact can be indirect. Some results given as binding are weak or reduced against the parent protein; the word gives no strength. Each block holds one substance with its values, some of them ahead of it.
How the values were obtained:
[1] = molecular target: CENP-I^57–C (of the CENP-HI^57–CKM complex) (human) (UniProt Q92674); experiment: SEC; subunits co-expressed in insect cells, complex co-purified by the His tag of one subunit and ion exchange, then SEC on Superdex 200 in 150 mM NaCl; both purified
[2] = molecular target: CENP-I^57–C (of the CENP-HI^57–CKM complex) (human) (UniProt Q92674); experiment: cross-linking; purified CENP-HI^57–CKM complex cross-linked on lysines (BS2G in the results, isotope-labeled disuccinimidyl suberate in the methods), Lys-C and trypsin digest, LC-MS/MS, xQuest; both purified
[3] = molecular target: GST-CENP-M^L94A–L163E (human) (UniProt Q9NSP4); experiment: pull-down; GST-CENP-M (wt or mutant), CENP-I^57–C, CENP-H and His-CENP-K co-expressed in Tnao38 insect cells; cleared lysate on glutathione sepharose, 4°C, 2 hr, 20 mM HEPES pH 7.5, 300 mM NaCl, 1 mM TCEP; SDS-PAGE, Coomassie and western blotting
[4] = molecular target: GFP-CENP-M^L94A+L163E (human) (UniProt Q9NSP4); experiment: co-IP; GFP-Trap precipitation from extracts of nocodazole-arrested mitotic HeLa Flp-In T-REx cells expressing GFP-CENP-M fusions; 75 mM HEPES pH 7.5, 150 mM KCl, 0.075% NP-40, benzonase; western blotting
GFP-CENP-M^wt (human) = GFP-CENP-M^wt (human) (UniProt Q9NSP4); experiment: as above
GST-CENP-M^wt (human) = GST-CENP-M^wt (human) (UniProt Q9NSP4); experiment: pull-down; GST-CENP-M (wt or mutant), CENP-I^57–C, CENP-H and His-CENP-K co-expressed in Tnao38 insect cells; cleared lysate on glutathione sepharose, 4°C, 2 hr, 20 mM HEPES pH 7.5, 300 mM NaCl, 1 mM TCEP; SDS-PAGE, Coomassie and western blotting
[5] = molecular target: His-CENP-I^57–281 (human) (UniProt Q92674); experiment: SEC; analytical SEC co-elution (Superdex200 5/150 or Superose6 5/150), 4°C; proteins mixed in 50 µl, at least 2 hr on ice; SEC buffer with 150 mM NaCl; both purified
Zwint = molecular target: T1, Zwint (UniProt O95229); experiment: as above
T1 sequence: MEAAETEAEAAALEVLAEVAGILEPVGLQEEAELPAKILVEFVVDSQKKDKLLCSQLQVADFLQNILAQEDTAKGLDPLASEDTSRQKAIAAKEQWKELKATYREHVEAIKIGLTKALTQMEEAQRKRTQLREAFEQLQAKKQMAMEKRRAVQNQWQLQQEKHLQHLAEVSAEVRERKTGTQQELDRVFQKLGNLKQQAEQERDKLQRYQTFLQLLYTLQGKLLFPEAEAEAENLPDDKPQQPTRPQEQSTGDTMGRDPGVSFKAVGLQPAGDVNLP

Amino acid sequences for entries named in this document (tags omitted). A change or cut given only in a name is not applied to a line headed by its entry. Residues count along the entry.
UniProt Q92674: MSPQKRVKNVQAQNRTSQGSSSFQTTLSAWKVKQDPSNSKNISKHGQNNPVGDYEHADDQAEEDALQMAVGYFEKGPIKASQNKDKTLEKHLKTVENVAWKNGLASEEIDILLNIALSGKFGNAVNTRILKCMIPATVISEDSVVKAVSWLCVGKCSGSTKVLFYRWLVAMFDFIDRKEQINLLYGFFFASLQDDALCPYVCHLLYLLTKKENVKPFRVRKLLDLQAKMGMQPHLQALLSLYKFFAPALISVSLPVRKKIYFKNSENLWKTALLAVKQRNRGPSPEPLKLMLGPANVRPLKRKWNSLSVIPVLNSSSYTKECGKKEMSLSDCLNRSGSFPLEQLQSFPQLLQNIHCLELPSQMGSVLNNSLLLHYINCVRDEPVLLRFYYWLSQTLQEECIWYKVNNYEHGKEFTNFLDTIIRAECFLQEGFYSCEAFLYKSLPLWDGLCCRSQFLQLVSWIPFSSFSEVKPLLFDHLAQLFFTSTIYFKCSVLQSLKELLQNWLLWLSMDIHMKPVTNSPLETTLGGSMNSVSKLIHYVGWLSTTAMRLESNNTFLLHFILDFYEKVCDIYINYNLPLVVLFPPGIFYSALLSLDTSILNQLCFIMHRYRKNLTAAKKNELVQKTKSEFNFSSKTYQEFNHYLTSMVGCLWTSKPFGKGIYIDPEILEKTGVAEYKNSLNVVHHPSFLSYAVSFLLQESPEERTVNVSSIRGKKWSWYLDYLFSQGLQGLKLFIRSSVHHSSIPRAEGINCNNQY
CENP-I^57–C (of the CENP-HI^57–CKM complex): residues 57-756 of Q92674
His-CENP-I^57–281: residues 57-281 of Q92674
UniProt Q9NSP4: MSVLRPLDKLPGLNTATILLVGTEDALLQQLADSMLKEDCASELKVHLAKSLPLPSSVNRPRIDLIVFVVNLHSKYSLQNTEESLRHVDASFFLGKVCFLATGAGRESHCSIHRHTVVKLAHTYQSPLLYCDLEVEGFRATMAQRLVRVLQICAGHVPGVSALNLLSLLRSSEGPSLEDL
CENP-C construct 509–760 (Q03188, residues 509-760): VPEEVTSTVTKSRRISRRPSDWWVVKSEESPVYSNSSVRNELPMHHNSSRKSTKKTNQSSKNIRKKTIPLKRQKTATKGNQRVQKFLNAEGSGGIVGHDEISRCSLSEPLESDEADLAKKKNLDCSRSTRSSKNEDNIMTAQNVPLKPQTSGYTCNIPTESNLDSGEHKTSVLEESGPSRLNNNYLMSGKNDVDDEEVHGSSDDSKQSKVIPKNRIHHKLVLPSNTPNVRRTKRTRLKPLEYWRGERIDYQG
CENP-C construct 631–C-terminus (Q03188, residues 631-943): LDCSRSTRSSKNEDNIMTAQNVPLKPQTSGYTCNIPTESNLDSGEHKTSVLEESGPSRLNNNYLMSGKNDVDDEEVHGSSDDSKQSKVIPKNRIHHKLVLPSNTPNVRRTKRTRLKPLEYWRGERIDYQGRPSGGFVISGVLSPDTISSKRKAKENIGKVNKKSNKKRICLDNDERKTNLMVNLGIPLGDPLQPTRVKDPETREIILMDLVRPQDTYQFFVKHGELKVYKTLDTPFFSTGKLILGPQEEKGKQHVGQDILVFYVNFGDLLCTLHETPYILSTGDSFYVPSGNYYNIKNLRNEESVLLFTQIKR
UniProt Q9BU64: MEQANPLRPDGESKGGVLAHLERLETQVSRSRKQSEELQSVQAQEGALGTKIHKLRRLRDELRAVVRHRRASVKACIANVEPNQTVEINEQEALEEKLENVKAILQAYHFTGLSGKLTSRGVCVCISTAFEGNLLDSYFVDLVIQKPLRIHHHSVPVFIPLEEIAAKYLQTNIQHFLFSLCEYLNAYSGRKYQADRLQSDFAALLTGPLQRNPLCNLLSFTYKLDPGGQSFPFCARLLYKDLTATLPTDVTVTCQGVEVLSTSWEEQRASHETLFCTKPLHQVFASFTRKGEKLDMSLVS
UniProt Q7L2Z9: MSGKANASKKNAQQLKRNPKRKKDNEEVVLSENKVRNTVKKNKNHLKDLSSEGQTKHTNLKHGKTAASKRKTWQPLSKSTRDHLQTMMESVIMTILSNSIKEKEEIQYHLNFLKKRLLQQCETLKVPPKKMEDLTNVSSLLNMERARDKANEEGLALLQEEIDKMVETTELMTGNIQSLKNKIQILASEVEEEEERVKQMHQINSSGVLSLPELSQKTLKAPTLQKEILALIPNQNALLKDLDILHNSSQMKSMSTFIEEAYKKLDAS
UniProt Q13352: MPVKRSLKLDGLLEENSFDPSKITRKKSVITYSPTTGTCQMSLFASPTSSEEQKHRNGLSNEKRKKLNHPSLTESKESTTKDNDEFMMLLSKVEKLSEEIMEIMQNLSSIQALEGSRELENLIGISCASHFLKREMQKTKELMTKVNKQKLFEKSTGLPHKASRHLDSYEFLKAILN
UniProt Q8N2Z9: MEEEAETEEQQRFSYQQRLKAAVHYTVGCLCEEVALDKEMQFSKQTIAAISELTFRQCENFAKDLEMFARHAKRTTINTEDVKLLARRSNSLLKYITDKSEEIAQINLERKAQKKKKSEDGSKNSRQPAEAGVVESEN
UniProt Q9H3R5: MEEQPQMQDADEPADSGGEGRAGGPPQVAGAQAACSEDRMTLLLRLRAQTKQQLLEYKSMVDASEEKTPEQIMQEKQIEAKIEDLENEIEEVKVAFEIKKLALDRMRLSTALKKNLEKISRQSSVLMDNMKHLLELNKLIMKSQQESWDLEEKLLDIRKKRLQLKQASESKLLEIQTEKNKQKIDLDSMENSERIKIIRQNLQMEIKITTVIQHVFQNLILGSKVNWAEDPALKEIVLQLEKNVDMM
UniProt Q9BS16: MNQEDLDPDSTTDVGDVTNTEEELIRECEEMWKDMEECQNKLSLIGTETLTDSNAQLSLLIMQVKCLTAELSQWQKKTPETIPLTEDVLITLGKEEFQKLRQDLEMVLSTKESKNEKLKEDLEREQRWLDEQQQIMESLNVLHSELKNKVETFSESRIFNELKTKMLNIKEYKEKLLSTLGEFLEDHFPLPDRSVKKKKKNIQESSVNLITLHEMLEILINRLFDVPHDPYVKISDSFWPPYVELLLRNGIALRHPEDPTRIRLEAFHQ
UniProt Q9H081: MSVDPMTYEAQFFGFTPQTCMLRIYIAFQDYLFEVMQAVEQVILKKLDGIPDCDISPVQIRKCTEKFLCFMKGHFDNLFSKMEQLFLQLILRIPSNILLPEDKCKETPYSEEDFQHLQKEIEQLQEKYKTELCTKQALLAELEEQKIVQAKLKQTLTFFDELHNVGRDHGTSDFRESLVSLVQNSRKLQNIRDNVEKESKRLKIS

CENP-C construct 509–760 = CENP-C construct 509–760 (UniProt Q03188); experiment: SEC; analytical SEC co-elution (Superdex200 5/150 or Superose6 5/150), 4°C; proteins mixed in 50 µl, at least 2 hr on ice; SEC buffer with 300 mM NaCl (proteins not stable in lower NaCl); both purified
[6] = molecular target: CENP-C construct 631–C-terminus (UniProt Q03188); experiment: as above
[7] = molecular target: CENP-O/CENP-P sub-complex (UniProt Q9BU64); experiment: as above
[8] = molecular target: CENP-O/CENP-P/CENP-Q/CENP-U complex (UniProt Q9BU64); experiment: as above
[9] = molecular target: CENP-Q/CENP-U sub-complex (UniProt Q7L2Z9); experiment: as above
CENP-R = CENP-R (UniProt Q13352); experiment: as above
[10] = molecular target: CENP-S/CENP-X sub-complex (UniProt Q8N2Z9); experiment: as above
[11] = molecular target: CENP-T/CENP-W sub-complex (not phosphorylated) (UniProt Q96BT3); experiment: as above
[12] = molecular target: CENP-T/CENP-W sub-complex (phosphorylated by Cdk1) (UniProt Q96BT3); experiment: as above
[13] = molecular target: CENP-T/CENP-W/CENP-S/CENP-X complex (UniProt Q96BT3); experiment: as above
CENP-M^1–171 (human) = CENP-M^1–171 (human) (UniProt Q9NSP4); experiment: SEC; SEC elution profile of the purified protein alone, with SDS-PAGE of peak fractions; both purified

binding [1]: binds
binding [2]: binds
binding [3]: no binding
Substance: CENP-H (from UniProt Q9H3R5 1-247)

binding [4]: no binding
binding (GFP-CENP-M^wt (human)): binds
Substance: CENP-I (endogenous) (from UniProt Q92674 1-756)

binding [1]: binds
binding [2]: binds
Substance: CENP-K (untagged, of the CENP-HI^57–CKM complex) (from UniProt Q9BS16 1-269)

binding [5]: no binding
binding (Zwint): no binding
binding (CENP-C construct 509–760): no binding
binding [6]: no binding
binding [7]: no binding
binding [8]: no binding
binding [9]: no binding
binding (CENP-R): no binding
binding [10]: no binding
binding [11]: no binding
binding [12]: no binding
binding [13]: no binding
Substance: CENP-M (from UniProt Q9NSP4 1-180)

binding (CENP-M^1–171 (human)): no binding
Substance: CENP-M^1–171 (from UniProt Q9NSP4 1-171) (domain or fragment)

binding [3]: no binding
Substance: His-CENP-K (from UniProt Q9BS16 1-269)

The remaining lines, values behind:

Substance: CENP-I^57–C (co-expressed with GST-CENP-M) (from UniProt Q92674 57-756) (domain or fragment)
binding [3]: no binding
binding (GST-CENP-M^wt (human)): binds

Substance: CENP-M (of the CENP-HI^57–CKM complex) (from UniProt Q9NSP4 1-180)
binding [1]: binds
binding [2]: binds

Substance: CENP-T/W (endogenous) (from UniProt Q96BT3 1-561; Q5EE01 1-88) (complex)
binding [4]: no binding

Substance: Mis12 (endogenous) (from UniProt Q9H081 1-205)
binding [4]: no binding

Reference: paper PMC4080450, “The pseudo GTPase CENP-M drives human kinetochore assembly” (eLife, 2014)
